GI50 and TGI data for one compound are collected here from PubChem BioAssay (NCI).

The subject of this experiment is NCI-H322M lung. The experiment is described as follows: NCI anticancer screen, dose series, 48 h.

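Results reflect a 48-hour exposure of cells in 96-well plates to compound at five concentrations. GI50: concentration for 50% inhibition of growth. TGI is the concentration that stops growth completely.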

On to `C=CCn1c(SCC(=O)Nc2ccc(C(=O)/C=C/c3cc(OC)c(OC)c(OC)c3)cc2)nnc1-c1c[nH]c2ccccc12`, for which the GI50 is 3.65 µM and the TGI was 18.8 µM.
